Assay results: the RNAGym collection of RNA variant scans (doi:10.1093/nar/gkz1192)
Read counts are not given, so values of variants with three or more changes are uncertain.

B1: CPEB3 Ribozyme (parent)
chain: UAACAGGGGGCCACAGCAGAAGCGUUCACGUCGCAGCCCCUGUCAGAUUCUGGUGAAUCUGCGAAUUCUGCUGUAUAUCUC

Variants of: B1
Test: self-cleavage, relative activity (ratio to wild type); higher = more cleavage; in vitro, sequencing
How it was run: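 For each CPEB3 ribozyme variant, relative activity is its cleaved/total read fraction divided by the unmutated ribozyme's. Barcoded error-prone PCR libraries were transcribed by T7 RNA polymerase (5 hours, 37°C) and held in DNase I for 15 min before an EDTA stop, with cleavage occurring throughout. Template-switching reverse transcription and Illumina sequencing were used to read the RNAs. A 5-read minimum applied, and results are the mean of three batches.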
With C17U U31C U67C the self-cleavage was 0.08. In the case of C17U U41C U58C U78C, the self-cleavage is reported as 0.21. For C17U U41C U60C U80C, the self-cleavage was 0.2. C17U U41G U69C gave a self-cleavage of 0.19. C17U U43C G53A gave a self-cleavage of 0.68. Work on C17U U51A G73A yielded a self-cleavage of 1.1. With C17U U51A U58C U76C the self-cleavage was 0.16. With C17U U51C A64G U66G the self-cleavage was 0.18. For C17U U51G U67C, the self-cleavage was 0.13. With C17U U54A G63A U66C the self-cleavage was 0.21. For C17U U54A U76A, the self-cleavage was 0.94. In the case of C17U U54C U60C A65G A77G, the self-cleavage is reported as 0.12. In the case of C17U U60G A64G, the self-cleavage is reported as 0.12. Variant A18C A21G U25C A45U A57G U72C has a self-cleavage of 0. Variant A18C A21U U67C A75U U80C has a self-cleavage of 0.02. In the case of A18C A35U U48A U78C U80A, the self-cleavage is reported as 0.03. A18C A45G A47U A64U showed a self-cleavage of 0.19. Work on A18C A56G U78C yielded a self-cleavage of 0.37. In the case of A18C A77G U78A, the self-cleavage is reported as 0.11. With A18C C23A U26C A45U U76C A77G the self-cleavage was 0.18. Variant A18C C32U A35C A65G has a self-cleavage of 0.09. A18C C34U A45G A56G gave a self-cleavage of 0.08. Variant A18C C34U U41C U49C has a self-cleavage of 0.15. Variant A18C G19A A56U has a self-cleavage of 0.07. In the case of A18C G19U A65U, the self-cleavage is reported as 0.17. Work on A18C G22A A57U A65G yielded a self-cleavage of 0.16. Work on A18C G24A U31C U49A A75U yielded a self-cleavage of 0.05. For A18C G24C G61U, the self-cleavage was 0.22. Variant A18C G30A G36U has a self-cleavage of 0.16. In the case of A18C G30A U76C A77U, the self-cleavage is reported as 0.12. In the case of A18C G33A U72C U74A, the self-cleavage is reported as 0.26. Work on A18C U25A G73A yielded a self-cleavage of 0.36. A18C U25C C27A U41C A45G gave a self-cleavage of 0.05. Work on A18C U25C U60A yielded a self-cleavage of 0.07. For A18C U25C U72A, the self-cleavage was 0.2. Variant A18C U26A U51A A56G U69C has a self-cleavage of 0.09. A18C U26C A35U G53A A65G U74C gave a self-cleavage of 0.02. Work on A18C U31A U69C yielded a self-cleavage of 0.12. A18C U41A A45G U72G U76C gave a self-cleavage of 0.06. Work on A18C U41A A47G A65G yielded a self-cleavage of 0.15. A18C U41A U43A U51A G55A A57U showed a self-cleavage of 0.26. For A18C U41C U43C C68A, the self-cleavage was 0.11. A18C U43A U49A A75U gave a self-cleavage of 0.3. In the case of A18C U43C A65G U78A, the self-cleavage is reported as 0.26. Work on A18C U43C U51A yielded a self-cleavage of 0.16. A18C U48G A57G gave a self-cleavage of 0.5. For A18C U49A U51C A75U, the self-cleavage was 0.22. A18C U51A A64G showed a self-cleavage of 0.21. With A18C U51A U66C the self-cleavage was 0.17. With A18C U51C G63A the self-cleavage was 0.62. A18C U51C U67C A75G U76G gave a self-cleavage of 0.15. A18C U60A A65G U78C gave a self-cleavage of 0.16. In the case of A18C U69C U78C, the self-cleavage is reported as 0.14. With A18G A20G A35U the self-cleavage was 0.12. With A18G A20G A35U U58A U60A U72C the self-cleavage was 0.04. Variant A18G A20G A57G A77G U80A has a self-cleavage of 0.34. For A18G A20G A64U U67A, the self-cleavage was 0.17. With A18G A20G C32U A45G U67C the self-cleavage was 0.06. For A18G A20G G22C U43G U49A A56U, the self-cleavage was 0.04. In the case of A18G A20G G33A G36U U43C U76C, the self-cleavage is reported as 0.16. For A18G A20G U25C U26C U48C U78C, the self-cleavage was 0.04. For A18G A20G U25C U31C, the self-cleavage was 0.32. A18G A20G U26C U51C gave a self-cleavage of 0.1. Work on A18G A20G U43C A64U A65G yielded a self-cleavage of 0.29. In the case of A18G A20G U43G U54A U67C A77G, the self-cleavage is reported as 0.13. A18G A20G U49A showed a self-cleavage of 0.1. A18G A20G U51A U60A U67C showed a self-cleavage of 0.21. In the case of A18G A20G U58C U67C, the self-cleavage is reported as 0.17. With A18G A20G U66C U78C the self-cleavage was 0.14. A18G A20G U67C U72C showed a self-cleavage of 0.25. A18G A20U C29U G53A U60C U76C showed a self-cleavage of 0.05. A18G A20U U26A C37U U49C showed a self-cleavage of 0.05. A18G A20U U48C gave a self-cleavage of 0.16. For A18G A20U U58C U60C U72A, the self-cleavage was 0.12. Variant A18G A20U U60C G63A has a self-cleavage of 0.19. Work on A18G A21C G33A U49A A57G A64G yielded a self-cleavage of 0.07. Variant A18G A21G A28G C32U A64G U69A has a self-cleavage of 0.06. For A18G A21G A64G U80A, the self-cleavage was 0.16. A18G A21G C32A A45G showed a self-cleavage of 0.03. With A18G A21G G24A C29G the self-cleavage was 0.31. With A18G A21G G24A U43C A45C A56U A64G the self-cleavage was 0.11. In the case of A18G A21G U26A A64U U72C, the self-cleavage is reported as 0.28. Work on A18G A21G U31A yielded a self-cleavage of 0.26.
